Results reported in paper PMC12040169 (PLOS Biology, 2025).
The other results are listed elsewhere or left out.

Test system: T1, C. trachomatis L2/434/Bu expressing GFP (CTL2-GFP)
T1 construct: L2/434/Bu GFP intracellular growth in HeLa cells
Parameters: species or system HeLa; C. trachomatis total inclusion area by high-content imaging, normalised to DMSO
Settings: total inclusion area; 28.5 h, 10 µM; inhibitor
Text: In this process, we also complemented the assay described above with an imaging-based readout (Fig 1B). After measurements of bulk GFP and resorufin fluorescence, cells were fixed, stained with the DNA dye Hoechst, and imaged at a high-content imaging platform to detect chlamydial inclusions (GFP) and host cell nuclei (Hoechst). The total area and number of inclusions in individual wells and the number of nuclei then served as additional proxies for chlamydial growth and host cell viability. […] MICs were calculated as described above.

Structure (SMILES) | % of control remaining
COc1ccccc1CCCNC(=O)c1ccc2nc(C)[nH]c2c1 [CBK283258] | 89.07
CCN1CC2(CCN(CCCN(C)C)CC2)c2ccccc21 [CBK136988] | 86.3859
O=C(NC1CCCCC1)N1C[C@@H]2C[C@H](C1)c1ccc(-c3cccnc3)c(=O)n1C2 [CBK289183] | 112.813
CN(CC(=O)N1CCC[C@@H]2[C@H]1C/C=C/Cc1ccccc1OCC(=O)N2C)Cc1ccccn1 [CBK292078] | 107.314
CS(=O)(=O)c1ccc(-c2nccnc2N[C@@H]2CCN(Cc3ccccc3)C2)cc1 [CBK037667] | 93.0812
O=C(NC(N1CCOCC1)C(Cl)(Cl)Cl)c1ccc(Cl)cc1 (stereo not shown) [CBK261084] | 93.9512
O=S(=O)(Nc1ccc(-c2csnn2)cc1)c1ccc(F)cc1 [CBK050482] | 76.1635
O=C(O)CC1OC(=O)c2cc3c(cc21)C(=O)OC3CC(=O)O (stereo not shown) [CBK262928] | 99.5896
Cn1nccc1C(=O)N1CCCC(c2cc3cccnc3[nH]2)C1 (stereo not shown) [CBK284929] | 103.23
CCC(C)C(NC(=O)C1CCN(S(=O)(=O)c2ccc(OC)c(OC)c2)CC1)C(=O)O (stereo not shown) [CBK297140] | 99.1626
Cc1ccc(C(=O)Cn2c3ccccc3n3ncnc23)cc1 [CBK263081] | 96.3099
NC(=O)C1CCN(C2=NC(=O)/C(=C/c3cn(-c4ccccc4)nc3-c3ccc(F)cc3)S2)CC1 [CBK265175] | 71.3335
CC1(C)Cc2c(ccc3ccccc23)C(NCC(=O)O)=N1 [CBK262559] | 95.8654
Cc1cccc2c3c([nH]c12)CCN(C(=O)C(C)N1CCOCC1)C3 (stereo not shown) [CBK281600] | 103.358
CC(C)NC(=O)N1Cc2nc[nH]c2C[C@H]1c1nc(-c2ccccc2)no1 [CBK288996] | 101.231
c1ccc(-c2nnc(COc3ccc(-c4cnc5ccccc5n4)cc3)o2)cc1 [CBK269707] | 84.3463
COc1cccc(CN2CCCC(NC(=O)c3csc(C(C)=O)c3)C2)c1 (stereo not shown) [CBK307297] | 89.2665
COc1ccc2c(c1)c(C)c(C(=O)N1CCCCC1CN(C)C)n2C (stereo not shown) [CBK282190] | 94.8366
Cn1cncc1C(=O)N1Cc2ccccc2C1 [CBK200329] | 96.9004
CN1CCN(C(=O)c2cc(Br)cnc2NCc2cccnc2)CC1 [CBK076347] | 68.1476
COC(=O)C1=C(C)N(CCc2ccccc2)C(=O)C1(NC(=O)c1ccccc1)C(F)(F)F (stereo not shown) [CBK267477] | 92.8481
Cc1cc(C)n(CC(C)NC(=O)C(c2ccccc2)N2CCCC2)n1 (stereo not shown) [CBK281645] | 109.249
OCCNc1nc2cc(Cl)ccc2[nH]1 [CBK262295] | 109.432
COc1ccc(C(C)C)cc1-c1cnc2[nH]c(=O)n([C@H](C)c3ccccc3)c2n1 [CBK064181] | 65.3626
c1cncc(-c2csc(Nc3nc4cc5c(cc4s3)OCO5)n2)c1 [CBK287490] | 82.8948

Structure (SMILES) | % of control remaining
OCCOc1cccnc1OCCN1CCCC1 [CBK039174] | 43.8296
O=S1(=O)N=c2cc3c(c4cccc1c24)=Nc1ccccc1N3 [CBK020253] | 84.3094
Cc1cc2ccccc2n1CCCNC(=O)c1ccc(=O)n(C)c1 [CBK282982] | 97.6689
Cc1ccc(NC(=O)C2CN(S(=O)(=O)c3ccccc3)CCN2S(=O)(=O)c2ccccc2)c(C)c1 (stereo not shown) [CBK262693] | 105.281
O=C(NC1CCCCC1)NS(=O)(=O)c1ccc(CCNC(=O)c2cnc3ccccc3n2)cc1 [CBK013051] | 60.8742
CN(C)CCN(Cc1ccccc1)Cc1ccc([N+](=O)[O-])cc1 [CBK261929] | 98.6854
Cc1ccc(N(Cc2cc3ccccc3nc2O)C(=O)c2cccnc2)cc1 [CBK265442] | 91.7827
Cc1cn(CC(=O)N2CCN(C(=O)c3ccco3)CC2)c(=O)[nH]c1=O [CBK144472] | 108.729
CCOc1ccc2c(c1)CN(CC(=O)Nc1cc(C)no1)CC2 [CBK305993] | 64.0411
COc1ccc([N+](=O)[O-])cc1COc1ccc2ccc(=O)oc2c1 [CBK264597] | 111.199
O=C1c2cccc3cccc(c23)C(=O)N1CCN1CCN(CC(O)COc2ccc3c(c2)OCO3)CC1 (stereo not shown) [CBK074849C] | 89.9344
COc1ccc(N(CC(=O)O)S(=O)(=O)c2ccccc2)c(OC)c1 [CBK262415] | 97.5158
Cc1nc2c(ccc3nc(NC(=O)c4ccccc4)sc32)s1 [CBK287560] | 93.9115
O=C(CCN1C(=O)c2cccc([N+](=O)[O-])c2C1=O)Nc1ccccc1Cl [CBK263121] | 98.9734
Cc1ccn(CCC(=O)NC(Cc2ccsc2)c2nccs2)n1 (stereo not shown) [CBK285137] | 97.0951
Cc1ccc(S(=O)(=O)Cc2cccc(C(=O)N3CCN(Cc4ccccc4)CC3)c2)cc1 [CBK269596] | 120.097
O=C(CSc1nnc(-c2ccncc2)s1)NNC(=O)c1cccs1 [CBK269600] | 94.1751
CC(=O)NCCNC(=O)c1cc(-c2cccc(S(C)(=O)=O)c2)cnc1NCC1CC1 [CBK076351] | 108.995
COc1ccc(C2Nc3ccccc3C(=O)N2Cc2ccccc2)cc1COc1ccc([N+](=O)[O-])cc1 (stereo not shown) [CBK033690] | 94.4284
Cn1cc([C@H]2C[C@@H](O)[C@@H](CO)O2)c(=O)[nH]c1=O [CBK201171] | 120.594
C=CCn1c2ccccc2c2nnc(SCc3ccc([N+](=O)[O-])cc3)nc21 [CBK265630] | 97.0097
C=C(C)Cn1c(SCC(C)C)nnc1-c1ccccc1Cl [CBK200078] | 84.5954
CCC1CCCCN1C(=O)C1CCCCC1 (stereo not shown) [CBK084528] | 95.826
O=C(CNC1CCN(Cc2ccccc2)CC1)Nc1ccc(Cl)cc1C(=O)c1ccccc1Cl [CBK074770] | 58.3809
